# Data as given in the supplement of paper PMC4967469.
# Lines with a small IC50 respond at low doses; fits outside the tested doses are given as limits. For AUC the same curve is integrated over the 256-fold range of doses and scaled to a fraction; the more sensitive the line, the further below 1. Any top dose called inferred was calculated from the reported fits.
# Experiments:
# Experiment in all cases: Viability of human cancer cell lines after 72 h of drug (GDSC screen)
# [1] = compound: COc1ccc(COc2ccc(Cc3cnc(N)nc3N)cc2OC)cc1 [GW-2580]; details: top dose 20 µM; top dose inferred
# Procedure: (§1)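 Human cancer cell lines in 384-well plates, medium with 10% serum, drug for 72 h over a 256-fold dose range (nine 2-fold or five 4-fold steps up to the top dose). Adherent lines were fixed and stained with the nucleic acid dye Syto60, suspension lines read with resazurin; signal relative to control wells, capped at 0 and 100%. One two-parameter sigmoid per drug and line, fitted in a mixed model over all curves with the slope shared within a line.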
# [2] = compound: Nc1cccc2c1CN(C1CCC(=O)NC1=O)C2=O [Lenalidomide]; details: top dose 5 µM; top dose inferred
# Procedure: as §1
# [3] = compound: CCC/C=C/C=C/C(=O)O[C@H]1/C(=C/C(=O)OC)C[C@H]2C[C@H]([C@@H](C)O)OC(=O)C[C@H](O)C[C@@H]3C[C@H](OC(C)=O)C(C)(C)[C@](O)(C[C@@H]4C/C(=C/C(=O)OC)C[C@H](/C=C/C(C)(C)[C@]1(O)O2)O4)O3 [Bryostatin 1]; details: top dose 0.008 µM; top dose inferred
# Procedure: as §1
# [4] = compound: CC(C)N(CCCNC(=O)Nc1ccc(C(C)(C)C)cc1)C[C@H]1O[C@@H](n2cc(Br)c3c(N)ncnc32)[C@H](O)[C@@H]1O [SGC0946]; details: top dose 0.5 µM; top dose inferred
# Procedure: as §1
Cell Line,AUC [1],IC50 [1] [nM],AUC [2],IC50 [2] [nM],AUC [3],IC50 [3] [nM],AUC [4],IC50 [4] [nM]
"NCI-H1666 (lung adenocarcinoma, semi-adherent)",0.983,> 20000,0.983,> 5000,0.981,> 8,0.985,> 500
"CTV-1 (acute myeloid leukaemia, suspension)",0.992,> 20000,0.986,> 5000,0.992,> 8,0.992,> 500
"MC116 (B-cell lymphoma, suspension)",0.999,> 20000,0.999,> 5000,0.997,> 8,0.998,> 500
"HT-1197 (bladder, adherent)",0.97,> 20000,0.981,> 5000,0.908,> 8,0.974,> 500
"KU812 (chronic myeloid leukaemia, suspension)",0.987,> 20000,0.988,> 5000,0.972,> 8,0.987,> 500
"KMOE-2 (acute myeloid leukaemia, suspension)",0.983,> 20000,0.968,> 5000,0.988,> 8,0.989,> 500
"H3118 (head and neck, adherent)",0.982,> 20000,0.977,> 5000,0.981,> 8,0.981,> 500
"ECC10 (stomach, suspension)",0.982,> 20000,0.982,> 5000,0.973,> 8,0.977,> 500
"H3255 (lung adenocarcinoma, adherent)",0.98,> 20000,0.984,> 5000,0.978,> 8,0.981,> 500
"SKN-3 (head and neck, adherent)",0.982,> 20000,0.977,> 5000,0.924,> 8,0.979,> 500
"VAL (B-cell lymphoma, suspension)",0.979,> 20000,0.986,> 5000,0.98,> 8,0.985,> 500
"NUGC-4 (stomach, adherent)",0.945,> 20000,0.98,> 5000,0.984,> 8,0.978,> 500
"LK-2 (lung squamous cell carcinoma, adherent)",0.987,> 20000,0.989,> 5000,0.897,> 8,0.988,> 500
"G-361 (melanoma, adherent)",0.972,> 20000,0.988,> 5000,0.887,> 8,0.982,> 500
"CMK (acute myeloid leukaemia, suspension)",0.991,> 20000,0.991,> 5000,0.991,> 8,0.99,> 500
"Daoy (medulloblastoma, adherent)",0.979,> 20000,0.961,> 5000,0.946,> 8,0.987,> 500
"EN (endometrium, adherent)",0.977,> 20000,0.976,> 5000,0.976,> 8,0.982,> 500
"RT4 (bladder, adherent)",0.979,> 20000,0.985,> 5000,0.987,> 8,0.986,> 500
"HO-1-u-1 (head and neck, adherent)",0.987,> 20000,0.981,> 5000,0.985,> 8,0.986,> 500
"ME-1 (acute myeloid leukaemia, suspension)",0.988,> 20000,0.982,> 5000,0.989,> 8,0.988,> 500
"RXF393 (kidney, adherent)",0.944,> 20000,0.938,> 5000,0.939,> 8,0.937,> 500
"Raji (Burkitt lymphoma, suspension)",0.989,> 20000,0.99,> 5000,0.99,> 8,0.989,> 500
"NCI-H2023 (lung adenocarcinoma, adherent)",0.983,> 20000,0.976,> 5000,0.98,> 8,0.98,> 500
"NB12 (neuroblastoma, adherent)",0.98,> 20000,0.979,> 5000,0.969,> 8,0.977,> 500

Cell Line,AUC [1],IC50 [1] [nM],AUC [2],IC50 [2] [nM],AUC [3],IC50 [3] [nM],AUC [4],IC50 [4] [nM]
"23132-87 (stomach, adherent)",0.984,> 20000,0.986,> 5000,0.928,> 8,0.975,> 500
"JHU-022 (head and neck, adherent)",0.982,> 20000,0.946,> 5000,0.972,> 8,0.976,> 500
"COLO-680N (oesophagus, adherent)",0.976,> 20000,0.963,> 5000,0.973,> 8,0.985,> 500
"OCI-AML2 (acute myeloid leukaemia, suspension)",0.992,> 20000,0.989,> 5000,0.992,> 8,0.995,> 500
"U-87-MG (glioma, adherent)",0.977,> 20000,0.985,> 5000,0.985,> 8,0.983,> 500
"8305C (thyroid, adherent)",0.978,> 20000,0.981,> 5000,0.975,> 8,0.979,> 500
"5637 (bladder, adherent)",0.972,> 20000,0.989,> 5000,0.977,> 8,0.989,> 500
"HT-1080 (fibrosarcoma, adherent)",0.985,> 20000,0.989,> 5000,0.959,> 8,0.988,> 500
"JiyoyeP-2003 (Burkitt lymphoma, suspension)",0.991,> 20000,0.989,> 5000,0.991,> 8,0.989,> 500
"JVM-2 (lymphoid neoplasm, suspension)",0.982,> 20000,0.953,> 5000,0.975,> 8,0.975,> 500
"DMS-53 (small cell lung carcinoma, adherent)",0.959,> 20000,0.986,> 5000,0.947,> 8,0.986,> 500
"NCI-H187 (small cell lung carcinoma, suspension)",0.987,> 20000,0.988,> 5000,0.988,> 8,0.986,> 500
"A375 (melanoma, adherent)",0.991,> 20000,0.964,> 5000,0.988,> 8,0.991,> 500
"KARPAS-231 (B-cell leukaemia, suspension)",0.98,> 20000,0.98,> 5000,0.944,> 8,0.988,> 500
"LB771-HNC (head and neck, adherent)",0.967,> 20000,0.723,1600,0.963,> 8,0.98,> 500
"ES6 (Ewing sarcoma, adherent)",0.971,> 20000,0.981,> 5000,0.948,> 8,0.975,> 500
"WM793B (melanoma, adherent)",0.983,> 20000,0.983,> 5000,0.887,> 8,0.982,> 500
"LOUCY (T-cell lymphoblastic leukaemia, suspension)",0.992,> 20000,0.992,> 5000,0.989,> 8,0.991,> 500
"DSH1 (bladder, adherent)",0.972,> 20000,0.989,> 5000,0.952,> 8,0.988,> 500
"NCI-H647 (non-small cell lung carcinoma, adherent)",0.979,> 20000,0.985,> 5000,0.964,> 8,0.944,> 500
"KYSE-150 (oesophagus, adherent)",0.989,> 20000,0.989,> 5000,0.95,> 8,0.988,> 500
"NB1 (neuroblastoma, semi-adherent)",0.896,> 20000,0.976,> 5000,0.984,> 8,0.967,> 500
"RH-41 (rhabdomyosarcoma, adherent)",0.986,> 20000,0.984,> 5000,0.99,> 8,0.991,> 500
